Reference: paper PMC6108835, “Target-Based Discovery of an Inhibitor of the Regulatory Phosphatase PPP1R15B” (Cell, 2018)

Biological target: T1, MBP-R15B^340-698-His (human, UniProt Q5SWA1 340-698)
T1 construct: Construct in pMAL-c5x as described in Das et al., 2015; also called PPP1R15B; source: E. coli BL21-Gold (DE3) pLysS, purified (HisTrap, MBPTrap); not shown: MBP, N-terminal, kept; His6, C-terminal, kept
T1 sequence (looked up): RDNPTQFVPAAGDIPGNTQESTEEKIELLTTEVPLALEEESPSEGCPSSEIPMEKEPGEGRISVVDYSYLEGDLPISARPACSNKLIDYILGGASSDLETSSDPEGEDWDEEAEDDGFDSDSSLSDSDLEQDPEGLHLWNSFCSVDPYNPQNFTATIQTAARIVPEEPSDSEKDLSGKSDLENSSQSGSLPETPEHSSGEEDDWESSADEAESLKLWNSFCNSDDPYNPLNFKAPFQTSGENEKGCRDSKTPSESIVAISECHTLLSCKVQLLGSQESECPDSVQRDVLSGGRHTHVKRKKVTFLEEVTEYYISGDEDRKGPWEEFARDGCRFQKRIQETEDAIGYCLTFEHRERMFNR
Assay: pull-down; partially purified bio-PP1c held on neutravidin agarose beads, washed, then incubated with or without 10 μM R15 (A or B) overnight at 4°C in IP buffer (50 mM Tris pH 7.5, 100 mM NaCl, 0.1 mM EGTA, 0.05% Tween 20, 0.1% NP40); Coomassie-stained gel, streptavidin-HRP blot
Settings: both partners purified

B1: bio-PP1c^[…] (biotinylated PP1c) (enzyme)
chain: not shown
modifications: biotin on the N-terminal biotin acceptor peptide (BAP)
notes: human PP1cγ, catalytic subunit of protein phosphatase 1, […]; Only partially pure before capture; also called PP1cγ; PP1γc^[…]; source: Sf9 insect cells (baculovirus, pDW464, biotinylated in vivo by BirA), partially purified (HiTrap Q, Superdex 200); not shown: biotin acceptor peptide (BAP), N-terminal, kept
Does B1 bind?
Result: binds
